Test results taken from publication PMC8298518.
These are yes or no findings as the source states them, for the method shown. In cells and extracts the contact can be indirect. Some results given as binding are weak or reduced against the parent protein; the word gives no strength. For some assays here: Where a sequence is shown, tags or fusion partners need not be part of it. One block for each binder: values may come before it.

Sequences of proteins named here, by UniProt entry; tags and fusion partners are left off.
UniProt Q07820: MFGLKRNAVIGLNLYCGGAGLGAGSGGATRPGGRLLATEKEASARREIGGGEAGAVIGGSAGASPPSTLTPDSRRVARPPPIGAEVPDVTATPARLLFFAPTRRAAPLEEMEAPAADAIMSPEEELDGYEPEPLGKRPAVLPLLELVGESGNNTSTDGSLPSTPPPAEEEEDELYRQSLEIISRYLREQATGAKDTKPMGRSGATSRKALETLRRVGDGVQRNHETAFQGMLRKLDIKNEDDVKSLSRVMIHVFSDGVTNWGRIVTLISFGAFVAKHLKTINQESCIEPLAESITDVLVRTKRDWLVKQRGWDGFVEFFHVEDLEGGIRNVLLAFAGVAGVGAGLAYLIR
UniProt Q07817: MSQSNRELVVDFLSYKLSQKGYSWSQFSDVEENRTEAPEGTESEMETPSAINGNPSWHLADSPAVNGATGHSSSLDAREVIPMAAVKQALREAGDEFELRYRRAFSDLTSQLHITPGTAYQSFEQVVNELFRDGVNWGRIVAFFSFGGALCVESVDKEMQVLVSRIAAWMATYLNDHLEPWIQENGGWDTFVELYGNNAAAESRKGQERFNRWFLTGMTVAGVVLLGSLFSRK
UniProt P10415: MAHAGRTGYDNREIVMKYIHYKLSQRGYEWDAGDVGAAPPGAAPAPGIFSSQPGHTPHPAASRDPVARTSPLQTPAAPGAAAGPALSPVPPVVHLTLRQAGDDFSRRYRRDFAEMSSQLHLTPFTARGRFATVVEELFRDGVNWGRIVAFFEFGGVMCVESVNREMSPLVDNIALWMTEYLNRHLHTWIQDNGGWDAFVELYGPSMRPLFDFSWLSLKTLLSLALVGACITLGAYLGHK

Key:
[1] = target: Flag-tagged MCL-1 WT (human) (UniProt Q07820); assay: co-IP; immunoprecipitation experiments using mutants of MCL-1 and GBP1 (Supplementary Fig. 2a, b)
[2] = target: endogenous MCL-1 (human (endogenous in K562 and HL-60)) (UniProt Q07820); assay: co-IP; HL-60 cells (Supplementary Fig. 1b)
[3] = target: endogenous MCL-1 (human (endogenous in K562 and HL-60)) (UniProt Q07820); assay: co-IP; K562 cells transfected with plasmids encoding GBP1 or GBP2 (3 µg; HA-GBP2 0, 3 or 6 µg), immunoprecipitation
[4] = target: Flag-tagged MCL-1 WT (human) (UniProt Q07820); assay: co-IP; 293T cells (2 x 10^6) cotransfected for 24 h; lysates immunoprecipitated with anti-FLAG
[5] = target: Flag-tagged MCL-1 WT (human) (UniProt Q07820); assay: co-IP; K562 cells cotransfected with 3 µg of plasmids encoding HA-GBP2 and FLAG-BCL-2 family members
[6] = target: T1, FLAG-BCL2A1 (UniProt Q16548); assay: as above
T1 sequence: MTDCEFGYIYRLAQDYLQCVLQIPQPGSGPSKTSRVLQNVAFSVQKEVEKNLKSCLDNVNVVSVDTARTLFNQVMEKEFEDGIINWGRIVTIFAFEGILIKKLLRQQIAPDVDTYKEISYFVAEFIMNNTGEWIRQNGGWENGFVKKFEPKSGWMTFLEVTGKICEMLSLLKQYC

[7] = target: FLAG-BCL-xL (UniProt Q07817); assay: as above
[8] = target: FLAG-BCL-2 (UniProt P10415); assay: as above
[9] = target: endogenous MCL-1 (human (endogenous in K562 and HL-60)) (UniProt Q07820); assay: co-IP; endogenous proteins from K562 lysates, immunoprecipitation and western blot, IgG as control; also after HA-GBP2 transfection (0, 3, 6 µg), GBP2 siRNA (200 nM), GBP2 knock-out, stable GBP1 or GBP2 overexpression, or paclitaxel (1 µM, 24 h)
[10] = target: endogenous MCL-1 (human (endogenous in K562 and HL-60)) (UniProt Q07820); assay: co-IP; endogenous proteins from HL-60 lysates, immunoprecipitation and western blot, IgG as control

- binding [1]: binds
- binding [2]: binds
- binding [3]: binds
B1: HA-GBP1 (protein, UniProt P32455 1-592)
chain: MASEIHMTGPMCLIENTNGRLMANPEALKILSAITQPMVVVAIVGLYRTGKSYLMNKLAGKKKGFSLGSTVQSHTKGIWMWCVPHPKKPGHILVLLDTEGLGDVEKGDNQNDSWIFALAVLLSSTFVYNSIGTINQQAMDQLYYVTELTHRIRSKSSPDENENEVEDSADFVSFFPDFVWTLRDFSLDLEADGQPLTPDEYLTYSLKLKKGTSQKDETFNLPRLCIRKFFPKKKCFVFDRPVHRRKLAQLEKLQDEELDPEFVQQVADFCSYIFSNSKTKTLSGGIQVNGPRLESLVLTYVNAISSGDLPCMENAVLALAQIENSAAVQKAIAHYEQQMGQKVQLPTETLQELLDLHRDSEREAIEVFIRSSFKDVDHLFQKELAAQLEKKRDDFCKQNQEASSDRCSALLQVIFSPLEEEVKAGIYSKPGGYRLFVQKLQDLKKKYYEEPRKGIQAEEILQTYLKSKESMTDAILQTDQTLTEKEKEIEVERVKAESAQASAKMLQEMQRKNEQMMEQKERSYQEHLKQLTEKMENDRVQLLKEQERTLALKLQEQEQLLKEGFQKESRIMKNEIQDLQTKMRRRKACTIS

- binding [4]: binds
B2: GBP2 ΔC (domain or fragment, UniProt P32456 1-309)
chain: MAPEINLPGPMSLIDNTKGQLVVNPEALKILSAITQPVVVVAIVGLYRTGKSYLMNKLAGKKNGFSLGSTVKSHTKGIWMWCVPHPKKPEHTLVLLDTEGLGDIEKGDNENDSWIFALAILLSSTFVYNSMGTINQQAMDQLHYVTELTDRIKANSSPGNNSVDDSADFVSFFPAFVWTLRDFTLELEVDGEPITADDYLELSLKLRKGTDKKSKSFNDPRLCIRKFFPKRKCFVFDWPAPKKYLAHLEQLKEEELNPDFIEQVAEFCSYILSHSNVKTLSGGIPVNGPRLESLVLTYVNAISSGDLPC

Further lines, the binder ahead of its results:

B3: HA-GBP2 (protein, UniProt P32456 1-591)
chain: MAPEINLPGPMSLIDNTKGQLVVNPEALKILSAITQPVVVVAIVGLYRTGKSYLMNKLAGKKNGFSLGSTVKSHTKGIWMWCVPHPKKPEHTLVLLDTEGLGDIEKGDNENDSWIFALAILLSSTFVYNSMGTINQQAMDQLHYVTELTDRIKANSSPGNNSVDDSADFVSFFPAFVWTLRDFTLELEVDGEPITADDYLELSLKLRKGTDKKSKSFNDPRLCIRKFFPKRKCFVFDWPAPKKYLAHLEQLKEEELNPDFIEQVAEFCSYILSHSNVKTLSGGIPVNGPRLESLVLTYVNAISSGDLPCMENAVLALAQIENSAAVEKAIAHYEQQMGQKVQLPTETLQELLDLHRDSEREAIEVFMKNSFKDVDQMFQRKLGAQLEARRDDFCKQNSKASSDCCMALLQDIFGPLEEDVKQGTFSKPGGYRLFTQKLQELKNKYYQVPRKGIQAKEVLKKYLESKEDVADALLQTDQSLSEKEKAIEVERIKAESAEAAKKMLEEIQKKNEEMMEQKEKSYQEHVKQLTEKMERDRAQLMAEQEKTLALKLQEQERLLKEGFENESKRLQKDIWDIQMRSKSLEPICNIL
- binding [5]: binds
- binding [6]: no binding
- binding [7]: no binding
- binding [8]: no binding
- binding [3]: binds

B4: endogenous GBP2 (protein, UniProt P32456 1-591)
chain: B3 chain
- binding [9]: binds
- binding [10]: binds
